{"source": "patent US11535838B2", "about": "“Serine protease molecules and therapies” (Research Development Foundation, priority 2012, dated 2022)", "molecules": {"B1": {"name": "GrB-Fc-IT4: GrB-Fc-IT4 (scFv) fusion targeting TNFRSF12A (Fn14), SEQ ID NO: 45 (protein)", "chain": "[about 250 residues not shown]AAAGGGGS[human IgG1 Fc with S442P (EU numbers) not shown]GGGGSQVQLVQSGAEVKKPGASVKVSCKASGYTFTDFIIAWVKQAPGQGLEWIGEIYPGTGRTYYSEKFRGKATLTADTSTSTAYMELSSLRSEDTAVYFCARRTIYYDYDGDYWGQGTLVTVSSGSTSGSGKPGSGEGSTKGDIVMTQSPLSLPVTPGEPASISCRSSKSLLHSNGITYLYWYLQKPGQSPQLLIYQMSNLASGVPDRFSGSGSGTDFTLKISRVEAEDVGVYYCAHNLELPWTFGQGTKVEIKR"}}, "assay_in_all_cases": "Cytotoxicity of GrB-Fc-IT4 constructs", "format_in_all_cases": "cell-based", "key": {"HCC827": {"test_system": "HCC827", "excerpt": "(§1) As an initial test of this arrangement a construct was produced comprising GrB-Fc-IT4 (scFv). Specifically, the IT4 scFv targets the product of the tumor necrosis factor receptor superfamily, member 12A (TNFRSF12A) gene and was previously described in Zhou et al., 2011, which is incorporated herein by reference. The sequence of the fusion protein produced by the construct is provided as SEQ ID NO: 45. The constructs was expressed and purified as detailed supra and tested for activity against a panel of cells lines (using GrB alone a control)."}, "HT-29": {"test_system": "HT-29", "excerpt": "as §1"}, "H2073": {"test_system": "H2073", "excerpt": "as §1"}, "MDA-MD-231-Luc": {"test_system": "MDA-MD-231-Luc", "excerpt": "as §1"}, "H3255": {"test_system": "H3255", "excerpt": "as §1"}, "MCF-7": {"test_system": "MCF-7", "excerpt": "as §1"}, "SK-MEF-28": {"test_system": "SK-MEF-28", "excerpt": "as §1"}, "MDA-MB-231": {"test_system": "MDA-MB-231", "excerpt": "as §1"}, "H358": {"test_system": "H358", "excerpt": "as §1"}, "SB2": {"test_system": "SB2", "excerpt": "as §1"}, "A549": {"test_system": "A549", "excerpt": "as §1"}, "MDA-MB-435": {"test_system": "MDA-MB-435", "excerpt": "as §1"}, "A375": {"test_system": "A375", "excerpt": "as §1"}, "H520": {"test_system": "H520", "excerpt": "as §1"}, "L3.6p1": {"test_system": "L3.6p1", "excerpt": "as §1"}, "MEF 3.5 −/−": {"test_system": "MEF 3.5 −/−", "excerpt": "as §1"}, "H1975": {"test_system": "H1975", "excerpt": "as §1"}, "Capan-2": {"test_system": "Capan-2", "excerpt": "as §1"}, "HCC2279": {"test_system": "HCC2279", "excerpt": "as §1"}, "H1437": {"test_system": "H1437", "excerpt": "as §1"}, "WM35": {"test_system": "WM35", "excerpt": "as §1"}, "AsPc-1": {"test_system": "AsPc-1", "excerpt": "as §1"}, "WM35P2N1": {"test_system": "WM35P2N1", "excerpt": "as §1"}, "Capan-1": {"test_system": "Capan-1", "excerpt": "as §1"}}, "data": [{"molecule": "B1", "values": [{"measurement": "IC50", "setting": "HCC827", "result": 114, "unit": "nM"}, {"measurement": "IC50", "setting": "HT-29", "result": 118, "unit": "nM"}, {"measurement": "IC50", "setting": "H2073", "result": "> 114", "unit": "nM"}, {"measurement": "IC50", "setting": "MDA-MD-231-Luc", "result": 3, "unit": "nM"}, {"measurement": "IC50", "setting": "H3255", "result": 27, "unit": "nM"}, {"measurement": "IC50", "setting": "MCF-7", "result": 35, "unit": "nM"}, {"measurement": "IC50", "setting": "SK-MEF-28", "result": "> 284", "unit": "nM"}, {"measurement": "IC50", "setting": "MDA-MB-231", "result": 17, "unit": "nM"}, {"measurement": "IC50", "setting": "H358", "result": 121, "unit": "nM"}, {"measurement": "IC50", "setting": "SB2", "result": 17, "unit": "nM"}, {"measurement": "IC50", "setting": "A549", "result": 19, "unit": "nM"}, {"measurement": "IC50", "setting": "MDA-MB-435", "result": 12, "unit": "nM"}, {"measurement": "IC50", "setting": "A375", "result": 73, "unit": "nM"}, {"measurement": "IC50", "setting": "H520", "result": 62, "unit": "nM"}, {"measurement": "IC50", "setting": "L3.6p1", "result": 35, "unit": "nM"}, {"measurement": "IC50", "setting": "MEF 3.5 −/−", "result": "> 114", "unit": "nM"}, {"measurement": "IC50", "setting": "H1975", "result": "> 114", "unit": "nM"}, {"measurement": "IC50", "setting": "Capan-2", "result": 21, "unit": "nM"}, {"measurement": "IC50", "setting": "HCC2279", "result": 19, "unit": "nM"}, {"measurement": "IC50", "setting": "H1437", "result": 14, "unit": "nM"}, {"measurement": "IC50", "setting": "WM35", "result": 3, "unit": "nM"}, {"measurement": "IC50", "setting": "AsPc-1", "result": 17, "unit": "nM"}, {"measurement": "IC50", "setting": "WM35P2N1", "result": 144, "unit": "nM"}, {"measurement": "IC50", "setting": "Capan-1", "result": 37, "unit": "nM"}]}]}
